This is an account of results in patent US20240197902A1 (ACCELERON PHARMA, published 2024).

Assay [1] concerns the target T1, GDF11 (UniProt O95390 299-407).
T1 sequence (looked up): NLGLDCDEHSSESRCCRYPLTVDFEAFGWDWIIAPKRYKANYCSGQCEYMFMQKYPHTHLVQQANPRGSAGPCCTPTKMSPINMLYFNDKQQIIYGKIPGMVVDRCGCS
The experiment in a line: cell-based or functional assay.

The target in assay [2] is T2, activin B (UniProt P09529 293-407).
T2 sequence (looked up): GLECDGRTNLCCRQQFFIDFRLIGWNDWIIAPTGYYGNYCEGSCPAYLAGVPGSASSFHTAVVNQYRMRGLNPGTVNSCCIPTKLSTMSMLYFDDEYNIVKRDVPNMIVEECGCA
The assay is described as follows: cell-based or functional assay.

Assay [3] deals with T3, BMP10 (UniProt O95393 317-424).
T3 sequence (looked up): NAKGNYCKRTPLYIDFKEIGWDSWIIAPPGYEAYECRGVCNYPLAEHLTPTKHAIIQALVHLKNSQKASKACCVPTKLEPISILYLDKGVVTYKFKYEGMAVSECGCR
The assay is described as follows: cell-based or functional assay.

Assay [4] addresses T4, activin A (UniProt P08476 311-426).
T4 sequence (looked up): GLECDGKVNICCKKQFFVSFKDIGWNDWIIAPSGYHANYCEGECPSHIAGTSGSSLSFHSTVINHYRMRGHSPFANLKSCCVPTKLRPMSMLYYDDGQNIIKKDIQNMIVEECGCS
The experiment in a line: cell-based or functional assay.

Assay [5] has as its target T5, GDF3 (UniProt Q9NR23 251-364).
T5 sequence (looked up): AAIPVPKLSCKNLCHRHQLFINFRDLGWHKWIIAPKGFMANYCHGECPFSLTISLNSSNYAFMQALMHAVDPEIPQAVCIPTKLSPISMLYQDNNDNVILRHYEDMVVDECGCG
The assay is described as follows: SPR (Biacore), Fc fusion captured by anti-Fc antibody.

The target in assay [6] is T1, GDF11. The assay is described as above.
Assay [7] concerns the target T2, activin B. The assay is described as above.
The target of assay [8] is T6, GDF8 (UniProt O14793 267-375).
T6 construct: also called myostatin
T6 sequence (looked up): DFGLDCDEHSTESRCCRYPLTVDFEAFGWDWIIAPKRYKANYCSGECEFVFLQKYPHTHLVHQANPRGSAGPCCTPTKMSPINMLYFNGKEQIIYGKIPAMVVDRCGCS
The description is as above.

Assay [9] has as its target T7, BMP9 (UniProt Q9UK05 320-429).
T7 construct: also called GDF2
T7 sequence (looked up): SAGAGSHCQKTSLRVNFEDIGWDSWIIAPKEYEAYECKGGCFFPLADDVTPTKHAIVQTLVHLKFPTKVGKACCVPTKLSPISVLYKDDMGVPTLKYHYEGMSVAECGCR
The assay is described as above.

Assay [10] addresses T8, BMP6 (UniProt P22004 375-513, limits assumed).
T8 sequence (looked up): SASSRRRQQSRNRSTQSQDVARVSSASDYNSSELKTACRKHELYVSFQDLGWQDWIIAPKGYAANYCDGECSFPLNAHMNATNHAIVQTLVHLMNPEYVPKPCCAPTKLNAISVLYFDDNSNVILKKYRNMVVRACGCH
The assay is described as above.

The target of assay [11] is T9, BMP5 (UniProt P22003 317-454, limits assumed).
T9 sequence (looked up): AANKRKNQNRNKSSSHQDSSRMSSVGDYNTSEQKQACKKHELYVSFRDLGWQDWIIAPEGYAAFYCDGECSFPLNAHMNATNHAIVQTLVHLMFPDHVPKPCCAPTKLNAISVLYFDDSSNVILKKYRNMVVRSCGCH
Described as above.

Assay [12] has as its target T3, BMP10. The assay is described as above.
The target of assay [13] is T4, activin A. The description is as above.
Assay [14] addresses T10, activin AC (UniProt P08476 311-426; P55103 237-352).
T10 construct: Heterodimer of beta A and beta C subunits
T10 sequence (looked up) 1: T4 sequence (looked up)
T10 sequence (looked up) 2: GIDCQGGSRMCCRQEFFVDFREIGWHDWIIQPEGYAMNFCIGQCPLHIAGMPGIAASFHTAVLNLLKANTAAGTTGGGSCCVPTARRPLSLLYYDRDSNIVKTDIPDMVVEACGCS
Described as above.

Assay [15] concerns the target T5, GDF3. The experiment in a line: SPR (Biacore), Fc fusion captured by anti-Fc antibody, 37 C. On the technique in general: In SPR one partner is held on a chip, and binding of the other changes the refractive index at the surface.
In assay [16] the target is T1, GDF11. The description is as above.
Assay [17] concerns the target T2, activin B. Described as above.
Assay [18] has as its target T6, GDF8. The description is as above.
The target in assay [19] is T7, BMP9. The assay is described as above.
Assay [20] addresses T8, BMP6. The description is as above.
Assay [21] addresses T3, BMP10. The description is as above.
Assay [22] deals with T4, activin A. The assay is described as above.
Assay [23] has as its target T6, GDF8. The experiment in a line: cell-based or functional assay.

Where only a bound is given, the exact number is not on record here.

B1: ActRIIB(L79H-F82I)-G1Fc (Fc fusion)
chain: GRGEAETRECIYYNANWELERTNQSGLERCEGEQDKRLHCYASWRNSSGTIELVKKGCWHDDINCYDRQECVATEENPQVYFCCCEGNFCNERFTHLPEAGGPEVTYEPPPTAPTG[gap - human IgG1 Fc and a few adjoining residues]
modifications: Homodimeric Fc fusion; one copy of the chain given
Turning to B1, the “IC50, A204 CAGA12 reporter gene assay” value in assay [1] was 0.36 nM; in assay [2], 0.15 nM; in assay [3], over 100 nM; in [4], over 100 nM.

B2: ActRIIB-Fc homodimer (Fc fusion)
chain: GRGEAETRECIYYNANWELERTNQSGLERCEGEQDKRLHCYASWRNSSGTIELVKKGCWLDDFNCYDRQECVATEENPQVYFCCCEGNFCNERFTHLPEAGGPEVTYEPPPTAPTG[gap - human IgG1 Fc and a few adjoining residues]
In general, Kd refers to the constant that tells how readily two partners part at equilibrium. Higher therefore signals weaker binding. Broadly, the koff is the rate constant with which the complex falls apart. One may read the kon as the rate constant with which the complex forms. On to B2, for which the Kd stood at 1.5 nM in [5]; 0.002 nM in [6]; 0.008 nM in [7]; 0.069 nM in assay [8]; 0.01 nM in [9]; 0.16 nM in [10]. In addition, the Kd is 2.9 nM in [11]; 0.025 nM in [12]; 0.011 nM in [13]; 0.16 nM in assay [14]; 1.5 nM in [15]; 0.004 nM in assay [16]. Also, the Kd in assay [17] was determined as 0.008 nM; in assay [18], 0.07 nM; in [19], 0.25 nM; in assay [20], 0.056 nM; in [21] it was 0.004 nM; in assay [22], 0.025 nM. For the same molecule, the koff in [5] came out at 0.0022 s⁻¹; in [6] it was 0.00015 s⁻¹; in [7] it was 0.00016 s⁻¹; in [8] it was 0.00024 s⁻¹; in assay [9], 0.0012 s⁻¹; in assay [10] it was 0.0039 s⁻¹. Besides, the dissociation rate constant (koff) in [11] came to 0.075 s⁻¹; in assay [12] it was 0.00015 s⁻¹; in [13], 0.00014 s⁻¹; in assay [14], 0.0031 s⁻¹; in [15], 0.0022 s⁻¹; in assay [16], 0.00017 s⁻¹. In addition, the off-rate (koff) is 6.6e-05 s⁻¹ in assay [17]; 0.00026 s⁻¹ in assay [18]; 0.0013 s⁻¹ in assay [19]; 0.0074 s⁻¹ in assay [20]; 0.0002 s⁻¹ in assay [21]; 0.00019 s⁻¹ in [22]. Also, the on-rate (kon) in assay [5] turned out to be 1.4e+06 M⁻¹ s⁻¹; in assay [6], 9.6e+07 M⁻¹ s⁻¹; in assay [7], 1.5e+07 M⁻¹ s⁻¹; in [8], 3.5e+06 M⁻¹ s⁻¹; in assay [9], 1.2e+08 M⁻¹ s⁻¹; in assay [10] it was 2.4e+07 M⁻¹ s⁻¹. Also, the kon in assay [11] worked out at 2.6e+07 M⁻¹ s⁻¹; in assay [12], 5.9e+06 M⁻¹ s⁻¹; in assay [13] it was 1.3e+07 M⁻¹ s⁻¹; in [14], 2e+07 M⁻¹ s⁻¹; in [15], 1.4e+06 M⁻¹ s⁻¹; in assay [16] it was 4.1e+07 M⁻¹ s⁻¹. In addition, the kon in [17] is 8.1e+06 M⁻¹ s⁻¹; in assay [18], 3.8e+06 M⁻¹ s⁻¹; in [19], 5e+06 M⁻¹ s⁻¹; in [20] it was 1.3e+08 M⁻¹ s⁻¹; in assay [21], 5.1e+07 M⁻¹ s⁻¹; in assay [22], 7.4e+06 M⁻¹ s⁻¹.

B3: ActRIIB(F82K-N83R)-G1Fc (Fc fusion)
chain: GRGEAETRECIYYNANWELERTNQSGLERCEGEQDKRLHCYASWRNSSGTIELVKKGCWLDDKRCYDRQECVATEENPQVYFCCCEGNFCNERFTHLPEAGGPEVTYEPPPTAPTG[gap - human IgG1 Fc and a few adjoining residues]
modifications: Homodimeric Fc fusion; one copy of the chain given
Regarding B3, the figures for the “IC50, A204 CAGA12 reporter gene assay” value in [2], in assay [3] and in assay [4] were 0.09 nM, 0.53 nM and 1.32 nM, respectively.

B4: ActRIIB(L79H-F82K)-G1Fc (Fc fusion)
chain: GRGEAETRECIYYNANWELERTNQSGLERCEGEQDKRLHCYASWRNSSGTIELVKKGCWHDDKNCYDRQECVATEENPQVYFCCCEGNFCNERFTHLPEAGGPEVTYEPPPTAPTG[gap - human IgG1 Fc and a few adjoining residues]
Turning to B4, the “IC50, A204 CAGA12 reporter gene assay” value was over 100 nM in assay [1], 0.1 nM in [2] and over 100 nM in assay [3].

B5: ActRIIB(F82I-N83R)-G1Fc (Fc fusion)
chain: GRGEAETRECIYYNANWELERTNQSGLERCEGEQDKRLHCYASWRNSSGTIELVKKGCWLDDIRCYDRQECVATEENPQVYFCCCEGNFCNERFTHLPEAGGPEVTYEPPPTAPTG[gap - human IgG1 Fc and a few adjoining residues]
modifications: Homodimeric Fc fusion; one copy of the chain given
With B5, the “IC50, A204 CAGA12 reporter gene assay” value in assay [1] is 9.95 nM; in assay [2], 0.08 nM; in assay [3], 13.2 nM; in [4] it was 1.67 nM.

B6: ActRIIB(L79H)-G1Fc (Fc fusion)
chain: GRGEAETRECIYYNANWELERTNQSGLERCEGEQDKRLHCYASWRNSSGTIELVKKGCWHDDFNCYDRQECVATEENPQVYFCCCEGNFCNERFTHLPEAGGPEVTYEPPPTAPTG[gap - human IgG1 Fc and a few adjoining residues]
modifications: Homodimeric Fc fusion; one copy of the chain given
On to B6, for which the “IC50, A204 CAGA12 reporter gene assay” value in assay [1] is 0.24 nM; in [2], 0.07 nM; in [23], 5.76 nM; in [3], over 100 nM; in [4], over 10 nM.

B7: ActRIIB(F82T-N83R)-G1Fc (Fc fusion)
chain: GRGEAETRECIYYNANWELERTNQSGLERCEGEQDKRLHCYASWRNSSGTIELVKKGCWLDDTRCYDRQECVATEENPQVYFCCCEGNFCNERFTHLPEAGGPEVTYEPPPTAPTG[gap - human IgG1 Fc and a few adjoining residues]
modifications: Homodimeric Fc fusion; one copy of the chain given
In the case of B7, the “IC50, A204 CAGA12 reporter gene assay” value in assay [1] turned out to be 17.9 nM; in [2] it was 0.11 nM; in [3] it was 12.6 nM; in [4], 1.52 nM.
